Test results taken from patent US20140349994A1, “Novel 2-Amino-4,5,6,8-Tetrahydropyrazolo[3,4-b]Thiazolo [4,5-d]Azepine Derivatives and Their Use as Allosteric Modulators of Metabotropic Glutamate Receptors” (Addex Pharma S.A., priority 2012, published 2014).

Row | melting point (free base) | melting point (hydrochloride salt (1.2 eq HCl)) | melting point (dihydrochloride dihydrate salt) | SMILES
1 | 245 °C | > 320 °C | – | Cc1nc(CN2CCc3sc(Nc4ncc(F)cn4)nc3-c3cn[nH]c32)no1 [Compound 1-138, N-(5-Fluoropyrimidin-2-yl)-6-((5-methyl-1,2,4-oxadiazol-3-yl)methyl)-4,5,6,8-tetrahydropyrazolo[3,4-b]thiazolo[4,5-d]azepin-2-amine]
2 | 232 °C | – | 257 to 259 °C | Fc1cnc(Nc2nc3c(s2)CCN(CCCN2CCOCC2)c2[nH]ncc2-3)nc1 [Compound 1-140, N-(5-Fluoropyrimidin-2-yl)-6-(3-morpholinopropyl)-4,5,6,8-tetrahydropyrazolo[3,4-b]thiazolo[4,5-d]azepin-2-amine]

Read-outs that look alike come from different tables or passages of the source. Entries with a single value are a further part of the results.
